Data published in the supplement of paper PMC11417369.
This is one part of the list.

These sequences were tested on PfHDP1 homeodomain (GST-tagged) (assay: gcPBM binding intensity (ln(normalized median fluorescence intensity)); higher = stronger DNA binding).
Method in brief: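 The binding buffer was 1× PBS containing 1% milk, 0.2 mg/ml BSA, 0.5% salmon testes DNA and 0.03% Triton X-100. In it, GST-tagged P. falciparum DNA-binding domains expressed in E. coli were applied for 1 h to an Agilent 4 × 180k array of primer-extended double-stranded 36-bp intergenic genomic probes plus negative controls. Binding intensity, read with Alexa488 anti-GST antibody and a 488 nm scan, is the highest Masliner-normalised natural-log median intensity across replicate spots of either probe orientation.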

First: ATCTATTTGTAAAGGGTGCGCATATCAATAAAAAAT [GTGCAC_site9503]
Second: AATAAATAAATAAATTAATAAATTAATAAATTAATA [GTGCAC_negctrl_site37]
The “gcPBM binding intensity (ln)” value of the first is higher: 7.32 for the first, 5.81 for the second.

Compared with “CACACAAAGGAATATACACACATATTTATATTTATA [CACACA_site7841]”, “ATAAAAAAAAAAAAAAAATATATATATATATATATA [XGTACX_negctrl_site424]” is higher in “gcPBM binding intensity (ln)” value: 6.54 for the first, 9.42 for the second.

First: TTTTAGGTCTGAATGTGTACTAAATAATATAAGTAT [XGTACX_site6554]
Second: TGTAATAACGTTATAAAAAGTATAAAAAAAAAAAAA [CACACA_negctrl_site943]
The “gcPBM binding intensity (ln)” value of the first is higher: 6.42 for the first, 6.2 for the second.

“TTATTTTTATTATTTTGTATATATATTTATAGAAAA [XGTACX_negctrl_site465]” and “TATATACTTTTTAATCACACTTCTTTAAAAAAAGTA [CACACA_negctrl_site1380]” are the same in “gcPBM binding intensity (ln)” value: 6.45 for the first, 6.45 for the second.

Compared with “TACCTAATATGTTATACACACATTAGAAGTACATAT [CACACA_site5375]”, “ATTATCTTATGTTATTTATTTGTCCCACATTTGTTA [TGCATGCA_negctrl_site402]” is higher in “gcPBM binding intensity (ln)” value: 6.65 for the first, 6.89 for the second.

Compared with “CATACACCCAGACACACACACATATATATATATATA [CACACA_site634]”, TTTTTGTTATTATGTGTGCACATATATATATATATA is higher in “gcPBM binding intensity (ln)” value: 9.29 for the first, 10.4 for the second.

Going from “AACAAATATCCCAAAAGTACACATATAAAAAAAAAA [XGTACX_site4126]” to “TATGTTATTATTTGTACACACACATATATATCCTTG [CACACA_site5910]”, the “gcPBM binding intensity (ln)” value rises from 6.77 to 6.99.

Going from “TTTATGTGTATGTTTACACACATAAAAAAATATATG [CACACA_site3039]” to “TATACCTTTGCGTGTGCATGCGCTTATATATATTTT [TGCATGCA_site152]”, the “gcPBM binding intensity (ln)” value rises from 6.54 to 9.59.

Going from “TATTTTTAATATTTTGCATGCAGTATTTTATAAAAT [TGCATGCA_site250]” to “ACAATTCCCGTATGATGTACTTTTTTCCACTTTTTC [XGTACX_site1811]”, the “gcPBM binding intensity (ln)” value falls from 7.07 to 6.56.

Going from “TACTAACATAAAGACACACACCACATAAAATAAATA [CACACA_site7663]” to CTTATTTTGTTATAAGTGCATTTTTTAAAATTTCTT, the “gcPBM binding intensity (ln)” value rises from 6.82 to 8.33.

Compared with “TATGAACACAGACACACACACAAAAAAAAAAAAAAA [CACACA_site7037]”, “GGAAGAAAACTTAGGTGTACATATAAAACGATATAA [XGTACX_site3118]” is higher in “gcPBM binding intensity (ln)” value: 6.49 for the first, 6.72 for the second.

Compared with “ATAGTATACAGACACACACACACACCGATATATATA [CACACA_site8511]”, “TAACTAAGGAATAATACACACAGAAATATATATTTA [CACACA_site344]” is lower in “gcPBM binding intensity (ln)” value: 6.92 for the first, 6.78 for the second.

Going from “ACATTATGCCATAAATGTACACATACATATACACAG [XGTACX_site1330]” to “GATGATGTTACTTAAGTGCATATAAATTATATTTTA [GTGCAC_site9940]”, the “gcPBM binding intensity (ln)” value rises from 6.66 to 8.68.

Compared with “TAAAGTTTTTTTTTAACACACACATAATAAAATAAA [CACACA_site8042]”, “AAATATATTATAAATTGTACGTTTATATATATTATT [XGTACX_site5110]” is lower in “gcPBM binding intensity (ln)” value: 6.71 for the first, 6.21 for the second.

First: GACACATATAAATATTAACACACATAATGAATTATA [CACACA_site8881]
Second: TTTATTTATATAATTACACACATATATACGCAAATG [CACACA_site2794]
The “gcPBM binding intensity (ln)” value of the first is lower: 6.57 for the first, 7.05 for the second.

Going from “AAAGTATAGATGTATACACACACCAAACGTTAAAAA [CACACA_site3081]” to “TTTTATTCATTAATTTGTACTTATCCTTTTGCTTAA [XGTACX_site1243]”, the “gcPBM binding intensity (ln)” value falls from 6.93 to 6.3.

Going from “TCATTAATTAAATCTTGTACATATTCATATATATAT [XGTACX_site2241]” to “GTGTTCTTGTTATACACACACATATTTATATTTATA [CACACA_site6615]”, the “gcPBM binding intensity (ln)” value falls from 8.17 to 7.11.

Going from “TAGTATCAATCTTATACATGCATAAAATAATTATAA [TGCATGCA_site1052]” to “AAAAAAAAAAAAAAAACACACACAAATTTAATATAT [CACACA_site8492]”, the “gcPBM binding intensity (ln)” value rises from 6.53 to 6.58.

Compared with “AAAATTAAAGTAAGGACACACATATATAATACATAT [CACACA_site823]”, “TACACCAAAAAAAAACGTACAAAATCCCACCCAGAC [XGTACX_site4622]” is higher in “gcPBM binding intensity (ln)” value: 6.85 for the first, 7.17 for the second.

First: TATATATATAACAACACACACAGATCATAAAACTGC [CACACA_site2161]
Second: AAAAAAAAAAAAAACACACACAAATTTAATATATAT [CACACA_site1695]
The “gcPBM binding intensity (ln)” value of the first is higher: 7.35 for the first, 6.64 for the second.

Going from “TCCCAAGGAGTAGGCACACATAAAATATTATACATA [CACACA_site717]” to “TATATTTATTTTAACACACACATATATATATTATAT [CACACA_site4729]”, the “gcPBM binding intensity (ln)” value rises from 6.42 to 6.69.

Compared with “TTATGTATTCATAACACATGCAAATAGGATCATATA [TGCATGCA_site731]”, “CGTTAGAGGGCTTTATCACACATGAAAAAAAAAAAA [CACACA_site5155]” is lower in “gcPBM binding intensity (ln)” value: 6.74 for the first, 6.2 for the second.

Compared with “ATATGATTTCACAAGACACACACATACAAATTTATA [CACACA_site9296]”, “CACACGCACAGACACACACACACATATAAATATGTA [CACACA_site6300]” is higher in “gcPBM binding intensity (ln)” value: 6.87 for the first, 7.87 for the second.

Compared with “TACAACATATTCAAATGTACAAATATAGGAATGAAA [XGTACX_site2730]”, “AGCGTATTATACTGACGTACATTTTATGTAACTCCA [XGTACX_site2715]” is lower in “gcPBM binding intensity (ln)” value: 6.82 for the first, 5.95 for the second.

First: AACATAAAATGGATATGTACATAAAAATATATACTC [XGTACX_site7775]
Second: TTATATTTCTTGAAGGGTACATACCATTATTTTTAA [XGTACX_site1159]
The “gcPBM binding intensity (ln)” value of the first is higher: 6.34 for the first, 6.2 for the second.

Going from “AGAAAACTCGCTTTTCTAAATCTCAAAAAAAAAAAA [XGTACX_negctrl_site94]” to “ATACATATATTAGGATGTACGTTTATTTTAGTTATT [XGTACX_site7169]”, the “gcPBM binding intensity (ln)” value falls from 6.07 to 6.

Compared with “ATATATTTATATATTACACACAATATTGGAGACATA [CACACA_site931]”, “AATTGGGAACTGTAATGTACATATATTGAAAGTATA [XGTACX_site7081]” is higher in “gcPBM binding intensity (ln)” value: 6.85 for the first, 6.95 for the second.

Going from “ACAAAAAAAAATATGTTAACTATATATATATATATA [CACACA_negctrl_site346]” to “TATTTATTTGTACATATACACACTTAAATATGTTTA [CACACA_site3902]”, the “gcPBM binding intensity (ln)” value falls from 9.31 to 6.82.

Going from “TAAACAAAAAGGAAGAGTACTTGTAAAATTTGTAAA [XGTACX_site3003]” to “TAAAAAAATAAAATTACACACATATATAGATATATA [CACACA_site7273]”, the “gcPBM binding intensity (ln)” value falls from 6.63 to 6.03.

Compared with “CACTTTTTTTAAATGTGTACGTATATGAAAATATCA [XGTACX_site4854]”, “ATATACATATCATGTAGTACAATTTTTTTACTTTTT [XGTACX_site7988]” is lower in “gcPBM binding intensity (ln)” value: 6.38 for the first, 6.14 for the second.

Compared with “GAACCATTTTTTGGTATACACACGTAATTATAGAAT [CACACA_site1851]”, “TACAAAAAATTATGGAGTACATATATAATATACAAT [XGTACX_site1004]” is lower in “gcPBM binding intensity (ln)” value: 6.55 for the first, 6.41 for the second.

Compared with “TGAATACATAAATATAGTACATATATATATATATTA [XGTACX_site8756]”, “AGATCATAATATTATACACACATTATGTATATGTAA [CACACA_site1490]” is higher in “gcPBM binding intensity (ln)” value: 6.3 for the first, 6.77 for the second.

First: TATAATATTATTTGAAGTACAAACATAAAAGAATTA [XGTACX_site3161]
Second: TAATTAACCTATGCATTCATATAGATACATAAATAT [CACACA_negctrl_site885]
The “gcPBM binding intensity (ln)” value of the first is lower: 6.26 for the first, 6.65 for the second.

Going from “GTTTCTATTCACATTTTACACACGTCCATCGCATTT [CACACA_site9142]” to “ACCAAATTATCAAATGGTACACATAAAATAATAAAA [XGTACX_site865]”, the “gcPBM binding intensity (ln)” value falls from 7.58 to 6.47.

Going from “TTTTGTTGTATGATAATTCTTTTATCAATATGTCTT [TGCATGCA_negctrl_site567]” to “TAATTTTTTTTTTTTTTTCATTCTTTTCCTTTGATT [CACACA_negctrl_site1365]”, the “gcPBM binding intensity (ln)” value falls from 6.14 to 5.93.

First: TTTATATAATTTTTTTGTACATATATATGAATACAT [XGTACX_site2316]
Second: ATAGTACAACAGGTTCTTGACAAACAATATGAATGT [GTGCAC_negctrl_site442]
The “gcPBM binding intensity (ln)” value of the first is higher: 6.7 for the first, 6.39 for the second.

Compared with “ATATACTCATTTAATACACACAAAGAGAAAATTAAT [CACACA_site1923]”, ATATATATATATATGGTGCATGAAAATTTACTTTGA is higher in “gcPBM binding intensity (ln)” value: 6.73 for the first, 9.67 for the second.

Compared with “GATATTTGTTCATATACACACTTTTGATAAAATATG [CACACA_site4807]”, “TATATTTTCCTGCAAACACACATATAAATGGGTAGA [CACACA_site4451]” is lower in “gcPBM binding intensity (ln)” value: 6.66 for the first, 6.51 for the second.

First: TTTTTTTTTTTTGGTAGTACATAATATTAATATAAT [XGTACX_site4422]
Second: CCCCTTGTGGATTCTACACACAAAAAGTCGTCAAAA [CACACA_site821]
The “gcPBM binding intensity (ln)” value of the first is lower: 6.33 for the first, 6.35 for the second.

Going from “GAATTCCTTTGTGTATGTACATAATGATATTATTTT [XGTACX_site7369]” to “TGATCAAATAAGTTTGCATGTCAACAATGCATATAT [TGCATGCA_site1025]”, the “gcPBM binding intensity (ln)” value rises from 6.64 to 6.73.

Compared with “TAATTTTTTAAACACACACACATATATATATATATA [CACACA_site4230]”, “TACTTTTATAAAAATTTTATCAAATTCTATATATGT [TGCATGCA_negctrl_site308]” is lower in “gcPBM binding intensity (ln)” value: 9.46 for the first, 6.31 for the second.

First: TTTTAAATTTAGTGTAGTACACTTTTTTCAAATATA [XGTACX_site4659]
Second: ATATAATTCAAATACAGTACATATACAATATATACA [XGTACX_site1191]
The “gcPBM binding intensity (ln)” value of the first is higher: 6.54 for the first, 6.26 for the second.

Going from “ATATTATCATTTTTTTTAATGGAAAAAAAAAAAAAA [CACACA_negctrl_site1298]” to “ATATATATAAAAGAAACAACATTTATTCAAAAGGTA [CACACA_negctrl_site749]”, the “gcPBM binding intensity (ln)” value falls from 6.41 to 6.2.

Compared with “TTATTCTTTTAATATACACACTTTGTCTTTTCGCGC [CACACA_site5525]”, “TACATATTTATATACACACACACACGGATATTTATA [CACACA_site7239]” is higher in “gcPBM binding intensity (ln)” value: 6.7 for the first, 7.05 for the second.
